In all, about 310,000 compounds went through this assay and about 2,200 (0.71%) showed an effect of 50% or more. The effect is printed as a negative number. The list shows a part of the results.
biological target: human ether-à-go-go-related gene (hERG) potassium channel (human, UniProt Q12809); test: primary screen, population patch clamp on CHO cells stably expressing hERG
Sequence (Q12809 whole entry, looked up): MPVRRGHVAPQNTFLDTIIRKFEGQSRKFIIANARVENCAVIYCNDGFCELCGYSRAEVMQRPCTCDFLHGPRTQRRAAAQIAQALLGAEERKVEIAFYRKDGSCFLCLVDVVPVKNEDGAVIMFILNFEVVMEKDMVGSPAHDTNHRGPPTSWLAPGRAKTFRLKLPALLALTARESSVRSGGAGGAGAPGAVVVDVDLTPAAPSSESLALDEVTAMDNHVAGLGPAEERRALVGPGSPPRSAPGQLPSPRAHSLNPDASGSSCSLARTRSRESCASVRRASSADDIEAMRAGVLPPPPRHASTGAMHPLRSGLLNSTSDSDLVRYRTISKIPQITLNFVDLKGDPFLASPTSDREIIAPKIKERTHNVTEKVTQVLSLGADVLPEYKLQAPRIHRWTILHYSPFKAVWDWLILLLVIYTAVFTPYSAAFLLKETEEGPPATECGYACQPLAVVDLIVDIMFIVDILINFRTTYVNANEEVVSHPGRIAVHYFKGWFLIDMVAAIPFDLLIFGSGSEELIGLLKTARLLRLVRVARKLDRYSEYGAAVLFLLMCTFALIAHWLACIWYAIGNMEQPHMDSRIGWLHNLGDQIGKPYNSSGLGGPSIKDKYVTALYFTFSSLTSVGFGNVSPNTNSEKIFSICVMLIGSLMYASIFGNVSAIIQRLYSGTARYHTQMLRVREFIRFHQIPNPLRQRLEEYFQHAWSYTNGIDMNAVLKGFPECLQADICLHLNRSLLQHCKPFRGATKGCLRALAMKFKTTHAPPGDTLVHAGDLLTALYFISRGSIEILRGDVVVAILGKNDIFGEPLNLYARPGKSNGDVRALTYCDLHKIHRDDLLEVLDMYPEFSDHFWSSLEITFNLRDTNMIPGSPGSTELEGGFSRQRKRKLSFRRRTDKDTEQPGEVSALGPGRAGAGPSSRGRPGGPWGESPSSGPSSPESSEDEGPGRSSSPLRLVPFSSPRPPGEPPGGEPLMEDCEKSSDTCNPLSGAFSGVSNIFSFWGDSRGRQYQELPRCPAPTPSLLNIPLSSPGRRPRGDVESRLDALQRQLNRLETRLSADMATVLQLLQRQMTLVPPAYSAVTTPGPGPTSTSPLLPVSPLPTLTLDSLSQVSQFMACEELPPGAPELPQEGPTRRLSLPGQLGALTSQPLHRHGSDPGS

Structure (SMILES)	hERG current change (%, negative = inhibition) at 1uM
O=C(CCn1c(=O)[nH]c2ccsc2c1=O)NCCc1ccc(Cl)cc1	10.4%
O=C(Nc1cccc(NC(=O)c2ccco2)c1)c1ccc2c(c1)OCO2	-16.4%
C#CCOC(=O)c1ccc(-n2cncn2)nc1	12.4%
Cc1ccc2[nH]c(C)c(CCNC(=O)c3c(N)no[n+]3[O-])c2c1	7.47%
COc1ccccc1-c1nn2c(-c3ccco3)nnc2s1	-9.47%
COc1ccc(CCNc2nc(-c3cccnc3)cs2)cc1OC	23.6%
CCN1CCN(C(=S)c2ccc(SC)cc2)CC1	-18%
CC12CCC(=O)N1c1c(sc3nc(N4CCOCC4)c4c(c13)CCCC4)C(=O)N2 (centres unmarked)	-11%
CN(C)CCCNC(=O)c1cc2c3ccccc3n(C)c2s1	-16%
O=C(Nc1cc(S(=O)(=O)N2CCCCCC2)ccc1OCC(F)(F)F)c1ccc(=O)[nH]c1	3.09%
COC(=O)[C@H](C)NC(=O)COc1ccccc1	-0.549%
Cc1cc(NC(=O)c2cc3n(n2)C(C(F)(F)F)CC(c2ccco2)N3)no1 (centres unmarked)	9.78%
COC(=O)c1c(NC(=O)CN2C(=O)NC3(CCCCC3C)C2=O)sc2c1CCC2 (centres unmarked)	-1.42%
Cc1cnc(C(=O)OCC(=O)Nc2ccc(Cl)cc2Cl)cn1	-3.28%
CCC(C)c1ccc(OCC(=O)Nc2ccc(Cl)cn2)cc1 (centres unmarked)	-0.712%
COc1ccc(S(=O)(=O)N(CC(=O)NC2CCCCC2)c2ccc(F)cc2)cc1	14.6%
CC1CCN(C(=O)C2CCCCN2S(=O)(=O)c2cccc([N+](=O)[O-])c2)CC1 (centres unmarked)	9.93%
CCCc1cc2c(cc1NC(=O)c1ccccc1F)OCO2	3.76%
Cc1ccccc1NCc1ccc(O)c2ncccc12	8.46%
CCOc1ccc(C(=O)NCc2ccco2)cc1OC	11.5%
CCn1cc(C(=O)NCc2ccco2)c(=O)c2cc(F)c(N3CCN(C(=O)c4ccco4)CC3)cc21	-0.391%
O=C(NC1CCN(C(=O)N2c3ccccc3Sc3ccccc32)CC1)c1ccccc1F	11.2%

Structure (SMILES)	hERG current change (%, negative = inhibition) at 1uM
Cc1c(CCC(=O)O)c(=O)oc2cc3occ(C(C)(C)C)c3cc12	10.5%
NC(=O)N/N=C/c1cn(-c2ccccc2)nc1-c1ccccc1	6.3%
CCC(=O)Nc1ccc2nc(C)n(Cc3ccccc3Cl)c(=O)c2c1	6.02%
Cc1ccccc1OC(C)C(=O)NCCC1=CCCCC1 (centres unmarked)	6.21%
CCc1ccccc1NC(=O)CCOc1ccccc1	12.5%
Cc1nn(C)c(C)c1S(=O)(=O)N1CCCC(C(=O)N2CCN(c3ccc(Cl)cc3)CC2)C1 (centres unmarked)	-17.6%
CCOc1ccc2nc(COC(=O)c3ccncc3)c(C(=O)c3ccccc3)[n+]([O-])c2c1	10%
O=C(Cn1cnc([N+](=O)[O-])n1)N/N=C/c1ccc2ccccc2c1	7.24%
Cn1c(=O)c2c(ncn2CC(=O)OCC(=O)NC(c2ccccc2)c2ccccc2)n(C)c1=O	-3.57%
COc1ccc(N2CCN(C(=O)Cn3nnc(-c4ccccc4N)n3)CC2)cc1	9.76%
O=C(COC(=O)c1ccc(O)cc1O)Nc1cc(-c2ccccc2)nn1-c1ccccc1	11.2%
CC(C)CCNC(=O)c1ccc(C2SCC(=O)N2Cc2ccco2)cc1 (centres unmarked)	-11.1%
Cl.NCCCCCC(=O)N/N=C/c1coc2ccccc2c1=O	11.8%
CC(NC(=O)CSc1nnc(-c2cc3cc(Cl)ccc3o2)n1C)c1ccccc1 (centres unmarked)	10.5%
COc1cc(NC(=O)CCN2CCN(C)CC2)cc(OC)c1	13.3%
Cc1cc(=O)oc2cc(OCC(=O)NCc3ccco3)ccc12	2.19%
COc1ccc(C(=O)CSc2nnc(-c3ccco3)n2CC2CCCO2)cc1 (centres unmarked)	1.01%
O=C(NCCc1ccccc1)C1(c2ccccc2)CC1(Cl)Cl (centres unmarked)	5.32%
COc1cc(N=CC2=C(O)c3ccccc3C2=O)cc(OC)c1	8.62%
COc1ccc2[nH]c(C)c(CN3CCC(C)CC3)c(=O)c2c1	-18%
O=C(c1ccc(Br)s1)N1CCN(c2ncccn2)CC1	-15.4%
COCCCNC(=O)Cn1ncc2c(=O)oc3ccccc3c21	5.96%

Source: PMC4336329 (PLoS ONE, 2015)
